# Reference: the supplement of paper PMC8728848
# The other results are listed elsewhere or left out.
# Experiments:
# Test in all cases: glycan array binding signal (z-score within array); higher = stronger binding
# Settings in all cases: glycan notation: IUPAC condensed, linker removed
# [1] = target: Man(a1-2)Man(a1-3)[Man(a1-2)Man(a1-6)]Man(a1-6)[Man(a1-2)Man(a1-2)Man(a1-3)]Man
# How it was run: (§1)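 Glycan array binding is given as a within-array Z-score, which can be read as non-binding when negative. The arrays, 3228 of them, came from the Consortium for Functional Glycomics database and were retained only where the protein sequence was available. Z-scores were averaged across arrays of the same protein sequence at different concentrations or buffers and across linkers.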
# [2] = target: Man(a1-2)Man(a1-3)[Man(a1-2)Man(a1-6)]Man(a1-6)[Man(a1-2)Man(a1-2)Man(a1-3)]Man(b1-4)GlcNAc(b1-4)GlcNAc
# How it was run: as §1
# [3] = target: Man(a1-2)Man(a1-3)[Man(a1-6)]Man(a1-6)[Man(a1-2)Man(a1-3)]Man(b1-4)GlcNAc(b1-4)GlcNAc
# How it was run: as §1
# [4] = target: Man(a1-2)Man(a1-6)[Man(a1-3)]Man(a1-6)[Man(a1-2)Man(a1-2)Man(a1-3)]Man
# How it was run: as §1
# [5] = target: Man(a1-2)Man(a1-6)[Man(a1-3)]Man(a1-6)[Man(a1-2)Man(a1-2)Man(a1-3)]Man(b1-4)GlcNAc(b1-4)GlcNAc
# How it was run: as §1
# [6] = target: Man(a1-3)[Man(a1-6)]Man
# How it was run: as §1
# [7] = target: Man(a1-3)[Man(a1-6)]Man(a1-6)[Man(a1-2)Man(a1-3)]Man(b1-4)GlcNAc(b1-4)GlcNAc
# How it was run: as §1
# [8] = target: Man(a1-3)[Man(a1-6)]Man(a1-6)[Man(a1-3)]Man
# How it was run: as §1
# [9] = target: Man(a1-3)[Man(a1-6)]Man(a1-6)[Man(a1-3)]Man(b1-4)GlcNAc(b1-4)GlcNAc
# How it was run: as §1
# [10] = target: Man(a1-3)[Man(a1-6)]Man(b1-4)GlcNAc(b1-4)GlcNAc
# How it was run: as §1
# [11] = target: Man(a1-3)[Man(a1-6)]Man(b1-4)GlcNAc(b1-4)[Fuc(a1-6)]GlcNAc
# How it was run: as §1
# [12] = target: Man(a1-6)Man
# How it was run: as §1
# [13] = target: Man(b1-4)GlcNAc
# How it was run: as §1
# [14] = target: MurNAc(b1-4)GlcNAc
# How it was run: as §1
# [15] = target: Neu5Ac(a2-3)Gal
# How it was run: as §1
# [16] = target: Neu5Ac(a2-3)Gal(b1-3)GalNAc
# How it was run: as §1
# [17] = target: Neu5Ac(a2-3)Gal(b1-3)GalNAc(b1-3)Gal(a1-4)Gal(b1-4)Glc
# How it was run: as §1
# [18] = target: Neu5Ac(a2-3)Gal(b1-3)GalNAc(b1-4)[Neu5Ac(a2-3)]Gal(b1-4)Glc
# How it was run: as §1
# [19] = target: Neu5Ac(a2-3)Gal(b1-3)GalNAc(b1-4)[Neu5Ac(a2-8)Neu5Ac(a2-3)]Gal(b1-4)Glc
# How it was run: as §1
# [20] = target: Neu5Ac(a2-3)Gal(b1-3)GalNAc6S
# How it was run: as §1
# [21] = target: Neu5Ac(a2-3)Gal(b1-3)GlcNAc
# How it was run: as §1
# [22] = target: Neu5Ac(a2-3)Gal(b1-3)GlcNAc(b1-2)Man
# How it was run: as §1
# [23] = target: Neu5Ac(a2-3)Gal(b1-3)GlcNAc(b1-2)Man(a1-3)[GlcNAc(b1-4)][Neu5Ac(a2-3)Gal(b1-3)GlcNAc(b1-2)Man(a1-6)]Man(b1-4)GlcNAc(b1-4)GlcNAc
# How it was run: as §1
# [24] = target: Neu5Ac(a2-3)Gal(b1-3)GlcNAc(b1-2)Man(a1-3)[Neu5Ac(a2-3)Gal(b1-3)GlcNAc(b1-2)Man(a1-6)]Man(b1-4)GlcNAc(b1-4)GlcNAc
# How it was run: as §1
# [25] = target: Neu5Ac(a2-3)Gal(b1-3)GlcNAc(b1-3)Gal(b1-3)GlcNAc
# How it was run: as §1
# [26] = target: Neu5Ac(a2-3)Gal(b1-3)GlcNAc(b1-3)Gal(b1-4)GlcNAc
# How it was run: as §1
# [27] = target: Neu5Ac(a2-3)Gal(b1-3)GlcNAc(b1-3)GalNAc
# How it was run: as §1
# [28] = target: Neu5Ac(a2-3)Gal(b1-3)GlcNAc(b1-4)Gal(b1-4)Glc
# How it was run: as §1
# [29] = target: Neu5Ac(a2-3)Gal(b1-3)GlcNAc(b1-6)GalNAc
# How it was run: as §1
# [30] = target: Neu5Ac(a2-3)Gal(b1-3)GlcNAc6S
# How it was run: as §1
# [31] = target: Neu5Ac(a2-3)Gal(b1-3)[Fuc(a1-4)]GlcNAc
# How it was run: as §1
# [32] = target: Neu5Ac(a2-3)Gal(b1-3)[Fuc(a1-4)]GlcNAc(b1-3)Gal(b1-3)[Fuc(a1-4)]GlcNAc
# How it was run: as §1
# [33] = target: Neu5Ac(a2-3)Gal(b1-3)[Fuc(a1-4)]GlcNAc(b1-3)Gal(b1-4)[Fuc(a1-3)]GlcNAc
# How it was run: as §1
# [34] = target: Neu5Ac(a2-3)Gal(b1-3)[GlcNAc(b1-6)]GalNAc
# How it was run: as §1
# [35] = target: Neu5Ac(a2-3)Gal(b1-3)[Neu5Ac(a2-6)]GalNAc
# How it was run: as §1
# [36] = target: Neu5Ac(a2-3)Gal(b1-3)[Neu5Ac(a2-6)]GlcNAc(b1-3)[Fuc(a1-3)[Gal(b1-4)]GlcNAc(b1-6)]Gal(b1-4)Glc
# How it was run: as §1
# [37] = target: Neu5Ac(a2-3)Gal(b1-3)]Neu5Ac(a2-3)Gal(b1-4)]GlcNAc
# How it was run: as §1
# [38] = target: Neu5Ac(a2-3)Gal(b1-4)Glc
# How it was run: as §1
# [39] = target: Neu5Ac(a2-3)Gal(b1-4)GlcNAc
# How it was run: as §1
# [40] = target: Neu5Ac(a2-3)Gal(b1-4)GlcNAc(b1-2)Man
# How it was run: as §1
# [41] = target: Neu5Ac(a2-3)Gal(b1-4)GlcNAc(b1-2)Man(a1-3)[GlcNAc(b1-4)][Neu5Ac(a2-3)Gal(b1-4)GlcNAc(b1-2)Man(a1-6)]Man(b1-4)GlcNAc(b1-4)GlcNAc
# How it was run: as §1
# [42] = target: Neu5Ac(a2-3)Gal(b1-4)GlcNAc(b1-2)Man(a1-3)[Neu5Ac(a2-3)Gal(b1-4)GlcNAc(b1-2)Man(a1-6)]Man(b1-4)GlcNAc(b1-4)GlcNAc
# How it was run: as §1
# [43] = target: Neu5Ac(a2-3)Gal(b1-4)GlcNAc(b1-2)Man(a1-3)[Neu5Ac(a2-3)Gal(b1-4)GlcNAc(b1-2)Man(a1-6)]Man(b1-4)GlcNAc(b1-4)[Fuc(a1-6)]GlcNAc
# How it was run: as §1
# [44] = target: Neu5Ac(a2-3)Gal(b1-4)GlcNAc(b1-2)Man(a1-3)[Neu5Ac(a2-6)Gal(b1-4)GlcNAc(b1-2)Man(a1-6)]Man(b1-4)GlcNAc(b1-4)GlcNAc
# How it was run: as §1
# [45] = target: Neu5Ac(a2-3)Gal(b1-4)GlcNAc(b1-2)[Neu5Ac(a2-3)Gal(b1-4)GlcNAc(b1-4)]Man(a1-3)[GlcNAc(b1-4)][Neu5Ac(a2-3)Gal(b1-4)GlcNAc(b1-2)[Neu5Ac(a2-3)Gal(b1-4)GlcNAc(b1-6)]Man(a1-6)]Man(b1-4)GlcNAc(b1-4)GlcNAc
# How it was run: as §1
binder,measurement,setting,value
AT1G15820(NC) (Arabidopsis thaliana) (protein) MAMAVSGAVLSGLGSSFLTGGKRGATALASGVGDAIAPFSFGSLLGTQLLLMGWVESKRWVDFFNPDSQSVEWATPWSKTAENFANYTGDQGYPGGRFFDPLGLAGKNRDGVYEPDFEKLERLKLAEIKHSRLAMVAMLIFYFEAGQGKTPLGALGL,glycan array binding signal (z-score),[1],-0.369
same,glycan array binding signal (z-score),[2],-0.585
same,glycan array binding signal (z-score),[3],-0.507
same,glycan array binding signal (z-score),[4],-0.141
same,glycan array binding signal (z-score),[5],0.516
same,glycan array binding signal (z-score),[6],0.314
same,glycan array binding signal (z-score),[7],-0.053
same,glycan array binding signal (z-score),[8],-0.196
same,glycan array binding signal (z-score),[9],-0.446
same,glycan array binding signal (z-score),[10],-0.45
same,glycan array binding signal (z-score),[11],-0.082
same,glycan array binding signal (z-score),[12],-0.511
same,glycan array binding signal (z-score),[13],0.172
same,glycan array binding signal (z-score),[14],-0.108
same,glycan array binding signal (z-score),[15],-0.457
same,glycan array binding signal (z-score),[16],-0.604
same,glycan array binding signal (z-score),[17],-0.441
same,glycan array binding signal (z-score),[18],-0.581
same,glycan array binding signal (z-score),[19],-0.683
same,glycan array binding signal (z-score),[20],-0.597
same,glycan array binding signal (z-score),[21],-0.178
same,glycan array binding signal (z-score),[22],1.29
same,glycan array binding signal (z-score),[23],-0.282
same,glycan array binding signal (z-score),[24],0.358
same,glycan array binding signal (z-score),[25],-0.521
same,glycan array binding signal (z-score),[26],-0.47
same,glycan array binding signal (z-score),[27],-0.434
same,glycan array binding signal (z-score),[28],-0.353
same,glycan array binding signal (z-score),[29],-0.225
same,glycan array binding signal (z-score),[30],0.445
same,glycan array binding signal (z-score),[31],0.003
same,glycan array binding signal (z-score),[32],-0.555
same,glycan array binding signal (z-score),[33],0.108
same,glycan array binding signal (z-score),[34],0.148
same,glycan array binding signal (z-score),[35],-0.248
same,glycan array binding signal (z-score),[36],-0.357
same,glycan array binding signal (z-score),[37],0.339
same,glycan array binding signal (z-score),[38],0.04
same,glycan array binding signal (z-score),[39],0.064
same,glycan array binding signal (z-score),[40],-0.217
same,glycan array binding signal (z-score),[41],-0.478
same,glycan array binding signal (z-score),[42],-0.433
same,glycan array binding signal (z-score),[43],-0.329
same,glycan array binding signal (z-score),[44],-0.673
same,glycan array binding signal (z-score),[45],-0.548
